# Some of the results follow. The full chains were built here from the parent and the listed change. Values near 0.05 are background.
# B1: TEV protease; numbered along this chain (parent)
# chain: MGESLFKGPRDYNPISSSICHLTNESDGHTTSLYGIGFGPFIITNKHLFRRNNGTLVVQSLHGVFKVKDTTTLQQHLVDGRDMIIIRMPKDFPPFPQKLKFREPQREERICLVTTNFQTKSMSSMVSDTSCTFPSGDGIFWKHWIQTKDGQCGSPLVSTRDGFIVGIHSASNFTNTNNYFTSVPKNFMELLTNQEAQQWVSGWRLNADSVLWGGHKVFMVKPEEPFQPVKEATQL
# Variants of: B1
# Assay: raw area under fraction-flipped curve 0-4 h after induction (AUC4h, not background-subtracted), DNA-recorder readout of cleavage of the substrate (dimensionless); higher = more cleavage of the substrate by the protease variant
# Conditions: temperature: 34 °C; time window: 0-4 h after rhamnose induction
# Protocol: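 In vivo DNA recorder in E. coli TOP10(DE3) ΔrhaA at 34 °C. Each TEVp single-site mutant (parent TEVp 0) is paired with a single-site variant of the 7-mer TEVs (canonical ENLYFQ|S). The substrate sits between flexible linkers in a Bxb1-sfGFP-TEVs-SsrA fusion, so cleavage stabilises Bxb1 and speeds flipping of a recombination array, read by NGS. The value is the raw area under the fraction-flipped curve over 0-4 h after rhamnose induction (AUC4h), with ≥20 reads per time point. It is not background-subtracted; inactive controls average about 0.047.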
# 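Also: Bxb1 expression induced with 0.2% (w/v) L-rhamnose at OD600 near 0.5, cultures sampled hourly, flipped fraction per protease–substrate barcode pair counted by paired-end Illumina sequencing.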
Variant,area with substrate ENAYFQS,area with substrate ENDYFQS,area with substrate ENFYFQS,area with substrate ENHYFQS,area with substrate ENQYFQS,area with substrate ENRYFQS,area with substrate ENSYFQS,area with substrate ENVYFQS,area with substrate ENWYFQS,area with substrate ENNYFQS,area with substrate ENEYFQS,area with substrate ENIYFQS,area with substrate ENYYFQS,area with substrate ENCYFQS,area with substrate ENGYFQS,area with substrate ENKYFQS,area with substrate ENMYFQS,area with substrate ENPYFQS,area with substrate ENTYFQS
Y179G,0.0479,0.0613,0.0188,0.0528,0.051,0.0705,0.0525,0.0766,0.0433,–,–,–,–,–,–,–,–,–,–
V113E,0.0613,0.057,0.063,0.0499,0.0602,–,0.0652,0.0421,–,0.0628,–,–,–,–,–,–,–,–,–
K7T,0.0556,0.0574,–,–,0.06,–,–,–,–,0.0523,0.0795,0.084,0.0588,–,–,–,–,–,–
V229N,0.0491,0.0727,–,0.0618,0.0668,0.0736,0.0668,0.0812,–,0.0693,–,0.0749,0.054,0.0647,0.07,0.0474,0.0864,0.0641,0.0634
L73M,0.057,0.0677,0.0464,0.0656,0.0619,0.0364,0.0572,0.077,–,0.0591,0.0639,0.0731,–,0.0482,0.0699,–,–,–,0.0664
I19D,0.0441,0.0563,0.0554,0.0417,0.0412,0.0445,0.0446,0.0311,–,0.0616,0.0406,–,–,0.0362,0.0367,0.0485,0.0632,–,0.0513
G2V,0.0617,–,0.0503,0.0641,0.0576,0.053,0.0547,0.0959,0.0461,–,0.0621,0.146,0.0551,0.0658,0.057,–,–,–,–
V58C,0.0605,0.0597,–,0.0664,–,–,–,0.0609,–,0.0544,0.0549,0.117,0.0626,0.0671,0.0551,–,–,0.0577,0.0533
V58W,0.055,–,–,–,–,–,–,0.0498,–,0.0155,–,–,0.0363,–,–,–,–,–,–
G35Y,0.0447,–,–,–,0.0598,–,0.0377,0.0578,–,–,–,0.0359,–,–,–,–,–,–,–
G35H,0.0331,–,0.047,–,–,–,–,–,–,–,0.0445,–,–,–,–,–,–,–,0.0375
P228T,0.0445,–,0.0602,–,–,–,0.0552,–,–,–,0.0587,–,–,0.0639,–,0.0606,–,–,0.0492
S121N,0.0587,0.0578,–,0.025,0.0671,–,0.0595,0.0787,0.0641,–,–,–,0.064,–,–,0.0483,–,0.0721,0.0582
W212I,0.0741,–,0.0715,–,0.0706,0.058,0.0707,0.11,0.0732,–,–,0.122,–,–,0.0806,–,–,–,0.0631
P14F,0.0555,0.06,–,0.0608,0.0599,0.0553,0.0635,0.0651,0.0035,0.0551,0.0571,–,–,0.0554,0.0712,–,–,0.0598,0.0668
H62P,0.0595,0.0521,0.0463,–,0.062,–,–,0.0596,–,–,0.0589,0.0809,–,–,0.0505,0.0684,–,–,–

Variant,area with substrate ENAYFQS,area with substrate ENDYFQS,area with substrate ENFYFQS,area with substrate ENHYFQS,area with substrate ENQYFQS,area with substrate ENRYFQS,area with substrate ENSYFQS,area with substrate ENVYFQS,area with substrate ENWYFQS,area with substrate ENNYFQS,area with substrate ENEYFQS,area with substrate ENIYFQS,area with substrate ENYYFQS,area with substrate ENCYFQS,area with substrate ENGYFQS,area with substrate ENKYFQS,area with substrate ENMYFQS,area with substrate ENPYFQS,area with substrate ENTYFQS
Q234P,0.0634,–,0.0411,–,0.0721,0.0671,–,0.087,–,0.065,0.0778,0.12,–,0.0601,0.0629,0.0615,0.0796,0.0602,0.0785
E108W,0.0519,0.0619,0.0602,–,0.0293,0.0515,0.0564,0.0494,0.0593,0.0606,0.0534,0.0522,0.07,0.0581,0.0573,0.05,0.0538,0.0424,0.0518
F49N,0.055,0.057,0.0571,–,0.0636,0.0558,0.0521,–,–,0.054,0.0721,–,0.0544,–,0.0523,0.0649,0.0506,0.0381,0.0632
F49L,0.0547,0.0382,–,–,0.0462,0.0586,0.0583,–,–,–,–,–,–,0.0658,–,0.0623,–,0.0583,–
L33A,0.0665,0.0571,–,–,–,0.0276,0.063,0.0677,0.122,–,0.0602,0.0937,–,–,0.0698,0.0671,–,–,–
N53H,0.0655,0.0633,–,0.0267,0.0633,0.0689,0.0684,–,–,–,0.071,–,0.0718,0.0644,0.079,0.055,–,0.0591,–
F218E,0.0457,0.0663,0.0628,0.0531,0.0496,0.0617,0.0664,0.0615,–,0.0588,0.058,–,–,–,0.0663,0.0564,–,0.0596,0.0479
T115I,0.0618,0.0659,0.0686,–,–,0.0595,0.0605,0.0706,–,0.0659,–,–,0.0561,–,0.0489,0.0668,0.0673,0.0619,0.0549
R81Q,0.0479,–,–,–,0.0602,–,–,0.0633,–,0.0719,–,0.0792,–,–,–,0.0691,–,0.0637,–
E107Q,0.0563,0.0606,0.0666,0.0579,0.0576,–,0.0781,0.0789,–,–,0.0523,0.0906,–,–,0.0691,–,–,0.0607,0.0574
W144E,0.0536,0.0651,–,0.0666,0.0651,–,0.0588,0.0614,0.0659,0.0609,0.0516,0.0799,–,–,0.0901,0.072,–,0.0747,0.0584
G162Q,0.0731,0.0457,0.0615,–,0.0826,0.0511,0.0603,0.0789,–,0.0529,0.0606,–,–,0.0606,0.0585,–,–,–,0.0572
G162T,0.0576,–,0.0371,0.0147,0.0533,–,0.0547,–,–,–,0.0593,–,0.0648,0.064,0.0779,0.0516,–,–,–
N177R,0.0541,0.0411,–,0.0523,0.0444,–,0.132,–,–,0.0678,0.0902,0.137,–,–,–,–,–,–,–
F226L,0.0487,0.0646,0.0738,–,0.056,–,0.0648,0.063,–,–,–,–,–,–,–,0.0773,0.0771,0.0573,0.0715

# Reference: the supplement of paper PMC12217912
